The list shows a part of the results.

In the assay the test system is PfHDP1 homeodomain (GST-tagged). The assay is described as follows: gcPBM binding intensity (ln(normalized median fluorescence intensity)); higher = stronger DNA binding. The gist of the method:
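GST-fused DNA-binding domains of P. falciparum, expressed in E. coli, were applied at about 25 μg on average for 1 h to an Agilent 4 × 180k array of primer-extended double-stranded 36-bp intergenic genomic probes and negative controls. Binding intensity is the highest Masliner-normalised natural-log median intensity across replicate spots of either probe orientation, measured with Alexa488 anti-GST antibody and a 488 nm scan.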
Consider “ATTTTAAATGTTATGCGTACATATTAATCCTACTTA [XGTACX_site1344]”, for which the “gcPBM binding intensity (ln)” value is 6.69.
For “TTTTAAAAATCTATATGTACACAATACGTCTATAAA [XGTACX_site5787]” the value was 6.44; for “TTTTTATATATCACGTGTACATATTTATTTTTACTC [XGTACX_site8049]”, 6.54; for “GAATCATCCAAAATTGCATGCAAGGAAGAAGAAAAA [TGCATGCA_site764]”, 7.05.
Consider “ATATGTAATAATAAATGTACGAAACATTGAACGATG [XGTACX_site1266]”, for which the “gcPBM binding intensity (ln)” value came to 6.83.
As to “CGTATGAAACATATATGTACTTATAAAAATATAACC [XGTACX_site7539]”, the “gcPBM binding intensity (ln)” value is 6.56.
For “AAATCACCTTAAGAACGTACAAACAGAAAAAAATTA [XGTACX_site4623]” the value was 6.65; for “TTTATTATATTTATATGTACTTATATAATATATGCA [XGTACX_site1906]”, 6.6; for “CTTATGTGTATAAGTAGTACTAAATTAAAATAATAT [XGTACX_site2681]”, 6.57.
The value for “TTATAAATATAATATTGTACAAAATTTTAACATGTC [XGTACX_site5259]” was 6.57.
For “TTATTTACCATCTCTACACACAAAAATTGATGTAGA [CACACA_site2811]” the value was 6.5.
Consider “ATATGTATTAAGTGTACACATATAATGTATTTTGTT [CACACA_site4177]”, for which the “gcPBM binding intensity (ln)” value amounted to 7.05.
With “TCATAATGAAAACAAGCACACATACATAAAATAAAA [CACACA_site9069]”, the “gcPBM binding intensity (ln)” value stood at 6.89.
Take “TAAATTATATTATGCACACTTAAAAATATATTTAAC [CACACA_site3512]”: the “gcPBM binding intensity (ln)” value was found to be 9.29.
For “AAAATAAAAAATATAACACACAATAAATATATATAT [CACACA_site1926]” the value was 8.22; for “TATACAAAATAACTAGCACACATATGTATAAACATA [CACACA_site9236]”, 6.58.
For “TTTTAACTTTTATATTGTACGTTGTTTATTTTATTT [XGTACX_site7504]” the value was 6.86; for “ATTTCCTGGCTACTGTGTACTGACCTCCAGACTGCT [XGTACX_site2005]”, 6.44.
The value for “ATAATCATTTGGATATTCACAATATTTAAAATTAAA [CACACA_negctrl_site909]” was 6.2.
In the case of “GAAAAAAAAAAAAAAAAAAAAAAATTCATTTTTTTT [XGTACX_negctrl_site54]”, the “gcPBM binding intensity (ln)” value came out at 5.61.
The value for “CATAAAAATATTTTCTGTACATATTCATATGACGTT [XGTACX_site3406]” was 6.73; that for “TATACATATATAATATGTACATATATTTTTTTTTAA [XGTACX_site2938]” was 6.13.
The value for “ATAAATAAAATTAGGTGTACTTTAATTAAAGAAAAT [XGTACX_site3319]” was 6.75; that for “AGGTTCCCAAAATGCACACCAATGAAATTATTTATT [CACACA_site553]” was 10.2; that for “ATAAATATTGGGTGCACACACATAATATATATATAT [CACACA_site2272]” was 10.5.
For “AAAAAAATATAGATCTGTACATATATAAATATATGT [XGTACX_site511]” the value was 6.21.
“TCTCTAATTTTTAATACACACAAATAAATAAATAAA [CACACA_site216]”: the “gcPBM binding intensity (ln)” value was 6.62.
The value for “ATATATGTTAATAATTGTACAAATCGATAATATATA [XGTACX_site5076]” was 7.3; that for “AATGTATATTATTGCACACATATATAAAATTATGCT [CACACA_site1096]” was 10.5.
For “ATTTGTGAATATATTCGGTGAACTTTGTTAACACAT [XGTACX_negctrl_site445]” the value was 6.89; for “ATCTCTATGATATATACACACAAATATACAAAAAAA [CACACA_site6605]”, 6.92; for “TATTATATTTGTATGTGTACTTATATGGTTGTAATA [XGTACX_site4548]”, 6.47.
For “ATGGAAAAAAAGCATTGTACATTTAAAGAAAAACAG [XGTACX_site6639]” the value was 6.73; for “AACGAAAACACTACGTGTACCAAATGTCCTGCCAAC [XGTACX_site5735]”, 6.14; for “AAATATTATCAAACATAAATTATTTTTATCCGTATA [CACACA_negctrl_site771]”, 6.12.
Regarding “ATATATATATATATGTGTACACAAAAAATATTATAT [XGTACX_site5741]”, the “gcPBM binding intensity (ln)” value turned out to be 9.26.
For “ATTCAAAAAAAATCAACACACAGTTACATAGCTCAA [CACACA_site2234]” the value was 6.46.
The value for “ATTCCATAAGTAAACACACAAATGCCAAAATTTTAT [CACACA_site7491]” was 6.51.
The value for “GCACATATATATGAAACACACATGGAAACATCTCTT [CACACA_site3966]” was 6.55; that for “AATCTAATTAAAATCACACATATATTCGTCGTAATA [CACACA_site5855]” was 6.05; that for “AAAAAATTAACGAGTGCACACATATTTAGATAAAAT [CACACA_site8958]” was 10.7.
For “ATATATATATATATAACACACGTGTATTTATCTGTA [CACACA_site5922]”, the “gcPBM binding intensity (ln)” value came out at 9.21.
The value for “TATGTGCACCCATATACACACACAAATACAATGATA [CACACA_site8295]” was 10.7; that for “AATTCATATACAAAAAGTACAAACGAAAAATAAAAA [XGTACX_site2900]” was 6.62; that for “GTTATATAAAAATATTGTACATTCTATATAAAGTCA [XGTACX_site4418]” was 6.32.
For “ATGTTTTATATTATTAATATATATATATATATATAT [CACACA_negctrl_site331]” the value was 8.97.
The value for “AAAAAAAAAAAAAAATGTACATATAAATAAATATAT [XGTACX_site7248]” was 6.39.
In the case of “ACAACATAGAGGGGCACACACATATATACATAAAAA [CACACA_site6954]”, the “gcPBM binding intensity (ln)” value is 7.
For “TAATATCCATATAAAACACACATCAAGGTTGTTAAC [CACACA_site175]” the value was 6.34; for “AAAAAAAAAAAAAACACACACATGCACCTCATATTA [CACACA_site556]”, 7.77; for “TTTATTTATTATTAAAGTACTAAATTATATTATTAT [XGTACX_site2565]”, 5.95.
The value for “AGGCATAATTAAAAGTAACAATTATGGAAACGGAGT [GTGCAC_negctrl_site623]” was 6.83; that for “ATTTTTGTAATTATTTGTACACATTTATTTATGTGT [XGTACX_site1864]” was 6.76.
For “ACTTATTTCGATATGTGTACTTAATATATATATTTA [XGTACX_site6616]” the value was 6.44; for “AAAAATATTTTGGTTTGTACATATATTTTTACAATA [XGTACX_site8691]”, 6.31.
As for “ACAAATAAAAATATTACACACACTATTATATTGATA [CACACA_site1494]”, the “gcPBM binding intensity (ln)” value was found to be 6.4.
Take TTATATTATATATATGTGCACATTTTTAAACTTGGA: the “gcPBM binding intensity (ln)” value was determined as 10.7.
For “AAATATTTATATGTTACACACTGTTGATAATTTTCT [CACACA_site1347]” the value was 6.33; for “GGAAGATGAAAAATAAAGCATGTGCTGTACAAACGA [CACACA_negctrl_site1625]”, 6.89; for “AGACCTTTAATTTGTGTGCACATAATTAGTGTACAT [GTGCAC_site9434]”, 10.7.
For “ATTAAAAAAAAAAAAAGTACTTATAATTATACTCGT [XGTACX_site4852]” the value was 6.35; for “TTCAAATTGTTTATATGTACTTATAAAAATTGTCTG [XGTACX_site977]”, 6.34; for “AATTATACTTCCTTCACACAGTTACATCATATATTA [CACACA_site5942]”, 6.94.
The value for “ATTCACATACATTACTTACACACCATATTAATATAT [CACACA_site459]” was 7.49; that for “TAAAAAATAAGATATACACACATATATATATATATA [CACACA_site2324]” was 9.35.
Take “AAAAAAAAAAAAAAGGAACACACAAGTAACAATAAA [CACACA_site8792]”: the “gcPBM binding intensity (ln)” value worked out at 6.5.
The value for “TAACATATTAATAACATATTTATAATATATTAATAA [TGCATGCA_negctrl_site243]” was 5.86.
For the sequence “TGACCGTTTTAAGAGTGTACAAAAAAAAAAAAAAAA [XGTACX_site4141]”, the “gcPBM binding intensity (ln)” value amounted to 6.07.
The value for “TATTCTATATAATAATGTACGTGATTTAAATTTTCA [XGTACX_site6650]” was 6.42.
Take “AAAATCGTGTTCTGAATACACACTAATACAAAGTTG [CACACA_site3985]”: the “gcPBM binding intensity (ln)” value stood at 6.42.
The value for “AAAAATACCTGAATATGTACATATGATCAATGGGCC [XGTACX_site887]” was 6.94; that for “ATTCATATATATTATACACACACATATATAAATATA [CACACA_site8228]” was 6.98; that for “AAATAAAATAAAAACATGCACACTTTATTTTTTTTA [CACACA_site2800]” was 7.69.
For “AGAAGTTTAAAAAGCACACAAAAAAAAAAAAAAAGA [CACACA_site3309]” the value was 6.08; for “TAAAAATATAAATTTTGTACGTAAAAAATGGTTCTT [XGTACX_site1506]”, 6.38.
The value for “TATTCCTTATTATAATTCTTAAATAAAAAAAAAAAA [TGCATGCA_negctrl_site45]” was 6.28; that for “TAGGATTTTTAGTTTATTGTAACTATTATTTTATTT [CACACA_negctrl_site829]” was 6.21; that for “ATATATAAACTGAAGGGTACAATGAAAAAAGAACTT [XGTACX_site7219]” was 6.81.
“CCCATTATTGTTGGGGGTACAATTTTGAATATATAT [XGTACX_site2227]”: the “gcPBM binding intensity (ln)” value came out at 7.74.
For “CATATTTGTTGACACACACACATATTTATATAAATA [CACACA_site7648]” the value was 6.9; for “GGGAGGATATTACACAGTACCCAGAAAATCTACGGA [XGTACX_site2551]”, 6.81; for “TTTATATGTTTAAAATGTACATGTGGTAAAAATTTT [XGTACX_site5907]”, 6.89.
“GTGTGGTTACAGACACGAACACATTTTTTAAATATT [CACACA_negctrl_site83]”: the “gcPBM binding intensity (ln)” value was 6.57.
The value for TATATATATTATATAGTGCATTGAAGAAGGGGATTT was 7.74; that for “GTAAGAAAGAAAGGAAGTACGTAAGAAAGTAAGAAC [XGTACX_site1239]” was 6.84.
For “TTTTTTTTTCTGTGAGTGCATGTAATAAAATAAATT [GTGCAC_site9740]” the value was 7.42; for “ATATATTTATAATACACATGCAATGATATAATATAT [TGCATGCA_site20]”, 6.55; for “CATATATACATATATACACACATATATATATATATA [CACACA_site645]”, 9.38.
Consider “CATTCAAACAAAAAAAGTACTCATCACATAATATAT [XGTACX_site1251]”, for which the “gcPBM binding intensity (ln)” value was 6.61.

The values above are taken from the supplement of paper PMC11417369.
